# Laboratory results from publication PMC11995724, “Antibiotic target discovery by integrated phenotypic and activity-based profiling of electrophilic fragments” (Cell chemical biology, 2025).
# The whole screen tested about 3,200 compounds, of which about 110 (3.4%) showed an effect of 50% or more. This is one part of the list.
# Test system: T1, V. cholerae SAD30
# T1 construct: SAD30
# Design: species or system S. aureus MSSA476 (TSB) or V. cholerae SAD30 (LB); 384-well bacterial growth screen at 25 uM, OD600 relative to DMSO control
# Details: relative growth, OD600, LB; 25 µM; inhibitor
row,Structure (SMILES),% of control remaining [%]
1,"CC1CCCC(NC(=O)C(C#N)=Cc2ccccc2)C1C (stereo not shown) [8-C19, 2-cyano-N-(2,3-dimethylcyclohexyl)-3-phenylprop-2-enamide]",69.6805
2,"Cc1cccc(Cc2cnc(NC(=O)CCl)s2)c1 [4-B09, 2-chloro-N-{5-[(3-methylphenyl)methyl]-1,3-thiazol-2-yl}acetamide]",87.6429
3,"N#CC(=Cc1c(Cl)cccc1Cl)C(=O)Nc1nccs1 [8-P09, 2-cyano-3-(2,6-dichlorophenyl)-N-(1,3-thiazol-2-yl)prop-2-enamide]",77.9742
4,"CC(Cl)C(=O)NCc1nc(N(C)C)no1 (stereo not shown) [7-A04, 2-chloro-N-{[3-(dimethylamino)-1,2,4-oxadiazol-5-yl]methyl}propanamide]",91.9874
5,"Cc1cccc(-n2c(C)cc(C(=O)CCl)c2C)c1 [10-A22, 2-chloro-1-[2,5-dimethyl-1-(3-methylphenyl)-1H-pyrrol-3-yl]ethan-1-one]",108.163
6,"Cc1ncsc1C=C(C#N)C(=O)Nc1ccc(C(=O)N(C)C)cc1 [9-J16, 4-[2-cyano-3-(4-methyl-1,3-thiazol-5-yl)prop-2-enamido]-N,N-dimethylbenzamide]",93.8817
7,"C=CC(=O)N(c1cc(C)ccc1C#N)C(C)C [2-A22, N-(2-cyano-5-methylphenyl)-N-(propan-2-yl)prop-2-enamide]",111.811
8,"CC(=O)N1c2ccc(C(=O)CCl)cc2CC1C (stereo not shown) [10-I20, 1-(1-acetyl-2-methyl-2,3-dihydro-1H-indol-5-yl)-2-chloroethan-1-one]",84.473
9,"O=C(CCl)NC(c1ccc(F)cc1)C1CCCC1 (stereo not shown) [6-K08, 2-chloro-N-[cyclopentyl(4-fluorophenyl)methyl]acetamide]",80.0834
10,"O=C(CCl)NCC(F)(F)c1cc(-c2ccccc2)n[nH]1 [7-P20, 2-chloro-N-[2,2-difluoro-2-(3-phenyl-1H-pyrazol-5-yl)ethyl]acetamide]",97.4062
11,"O=C(CCl)N1N=C(c2ccccc2)CC1c1ccccc1 (stereo not shown) [4-I20, 2-chloro-1-(3,5-diphenyl-4,5-dihydro-1H-pyrazol-1-yl)ethan-1-one]",103.343
12,"C=CC(=O)N1CCN(CC(=O)NC)CC1 [1-F03, N-methyl-2-[4-(prop-2-enoyl)piperazin-1-yl]acetamide]",104.634
13,"O=C(CCl)Nc1ccc(Oc2ccccc2)cc1 [4-J09, 2-chloro-N-(4-phenoxyphenyl)acetamide]",97.6493
14,"COC(=O)C(C(=O)CCl)=C1Nc2ccccc2N1 [10-G12, methyl 4-chloro-2-(2,3-dihydro-1H-1,3-benzodiazol-2-ylidene)-3-oxobutanoate]",96.6297
15,"O=C(CCl)N(Cc1ccc(Cl)cc1)C12CC3CC(CC(C3)C1)C2 [4-H07, N-(adamantan-1-yl)-2-chloro-N-[(4-chlorophenyl)methyl]acetamide]",55.3806
16,"CC(=O)NCCc1ccc(C(=O)C(C)Cl)cc1 (stereo not shown) [10-B03, N-{2-[4-(2-chloropropanoyl)phenyl]ethyl}acetamide]",104.734
17,"C=CC(=O)N1CCC(C(=O)N2CCCC(NC(=O)C(C)(C)C)C2)CC1 (stereo not shown) [2-F05, 2,2-dimethyl-N-{1-[1-(prop-2-enoyl)piperidine-4-carbonyl]piperidin-3-yl}propanamide]",96.2173
18,"C=CC(=O)N(Cc1noc2c1CCCC2)CC1CCCC1 [1-H13, N-(cyclopentylmethyl)-N-[(4,5,6,7-tetrahydro-1,2-benzoxazol-3-yl)methyl]prop-2-enamide]",77.728
19,"CNC(=O)Cn1ccc2ccc(NC(=O)C(C#N)=Cc3ccco3)cc21 [9-F18, 2-cyano-3-(furan-2-yl)-N-{1-[(methylcarbamoyl)methyl]-1H-indol-6-yl}prop-2-enamide]",82.8688
20,"N#CC(=Cc1ccc(SC(F)(F)F)cc1)C(=O)NC1CC1 [9-C14, 2-cyano-N-cyclopropyl-3-{4-[(trifluoromethyl)sulfanyl]phenyl}prop-2-enamide]",74.5751
21,"CC(=O)Nc1ccc(C=C(C#N)C(=O)NC2CCCCC2)cc1 [8-N16, 2-cyano-N-cyclohexyl-3-(4-acetamidophenyl)prop-2-enamide]",72.5357
22,"O=C(CCl)NCCSc1ccc(Cl)cc1 [4-H17, 2-chloro-N-{2-[(4-chlorophenyl)sulfanyl]ethyl}acetamide]",99.8922
23,"O=C(CCl)N1CCSc2c([nH]c3ccccc23)C1 [6-F08, 2-chloro-1-{2H,3H,4H,5H,6H-[1,4]thiazepino[6,7-b]indol-4-yl}ethan-1-one]",87.8188

row,Structure (SMILES),% of control remaining [%]
1,"C=CC(=O)N(C)Cc1cc2sccc2n1C [2-B19, N-methyl-N-({4-methyl-4H-thieno[3,2-b]pyrrol-5-yl}methyl)prop-2-enamide]",92.203
2,"CC(Cl)C(=O)N1CCCC1c1nc(-c2ccccc2)c(C(C)C)o1 (stereo not shown) [7-H11, 2-chloro-1-{2-[4-phenyl-5-(propan-2-yl)-1,3-oxazol-2-yl]pyrrolidin-1-yl}propan-1-one]",73.8807
3,"Cn1ncc2ccc(CNC(=O)N3CCSSCC3)cc21 [10-A20, N-[(1-methyl-1H-indazol-6-yl)methyl]-1,2,5-dithiazepane-5-carboxamide]",103.799
4,"C=CC(=O)NC(c1nc(C)cs1)C1CC1 (stereo not shown) [3-D21, N-[cyclopropyl(4-methyl-1,3-thiazol-2-yl)methyl]prop-2-enamide]",100.912
5,"Cc1ccc(CNC(=O)c2ccccc2NC(=O)CCl)cc1 [4-H21, 2-(2-chloroacetamido)-N-[(4-methylphenyl)methyl]benzamide]",106.966
6,"N#Cc1c(NC(=O)CCl)oc(-c2ccco2)c1-c1ccco1 [5-D10, 2-chloro-N-[4'-cyano-2'-(furan-2-yl)-[2,3'-bifuran]-5'-yl]acetamide]",75.8222
7,"CC(Cl)C(=O)Nc1cccc(C#N)c1 (stereo not shown) [5-B10, 2-chloro-N-(3-cyanophenyl)propanamide]",95.8285
8,"O=C(CCl)Nc1ccc2oc3ccccc3c2c1 [6-N06, 2-chloro-N-{8-oxatricyclo[7.4.0.0,2,7]trideca-1(9),2(7),3,5,10,12-hexaen-4-yl}acetamide]",89.1838
9,"CC(Cl)C(=O)Nc1ccc(C2CC(=O)NC(=O)N2)cc1 (stereo not shown) [5-D19, 2-chloro-N-[4-(2,6-dioxo-1,3-diazinan-4-yl)phenyl]propanamide]",97.5097
10,"C=CC(=O)N1CCC(c2ccc(OC)cc2)C1 (stereo not shown) [1-N16, 1-[3-(4-methoxyphenyl)pyrrolidin-1-yl]prop-2-en-1-one]",95.1914
11,"COC1(OC)CCOCC1NC(=O)CCl (stereo not shown) [7-D10, 2-chloro-N-(4,4-dimethoxyoxan-3-yl)acetamide]",84.5862
12,"CC(Cl)C(=O)N1C2CCC1CC(c1ccnn1C)C2 (stereo not shown) [7-O15, 2-chloro-1-[3-(1-methyl-1H-pyrazol-5-yl)-8-azabicyclo[3.2.1]octan-8-yl]propan-1-one]",78.2422
13,"CC(Cl)C(=O)NC1CCCCC1n1cccn1 (stereo not shown) [7-F17, 2-chloro-N-[2-(1H-pyrazol-1-yl)cyclohexyl]propanamide]",75.731
14,"COc1ccc(CN(C)C(=O)CCl)cc1F [4-F03, 2-chloro-N-[(3-fluoro-4-methoxyphenyl)methyl]-N-methylacetamide]",110.244
15,"C=CC(=O)N1CCCn2cccc2C12CCOCC2 [1-A22, 1-{2',3',4',5'-tetrahydrospiro[oxane-4,1'-pyrrolo[1,2-a][1,4]diazepin]-2'-yl}prop-2-en-1-one]",107.922
16,"C=CC(=O)Nc1cccc(NS(=O)(=O)C2CC2)c1 [3-D16, N-(3-cyclopropanesulfonamidophenyl)prop-2-enamide]",95.6185
17,"C=CC(=O)N1CCC(c2nc(C(=O)O)co2)CC1 [2-K03, 2-[1-(prop-2-enoyl)piperidin-4-yl]-1,3-oxazole-4-carboxylic acid]",108.723
18,"CSc1cccc(NC(=O)CCl)c1 [4-H10, 2-chloro-N-[3-(methylsulfanyl)phenyl]acetamide]",90.9209
19,"O=C1CCCc2cc(C(=O)CCl)ccc2N1 [10-M20, 7-(2-chloroacetyl)-2,3,4,5-tetrahydro-1H-1-benzazepin-2-one]",94.6035
20,"COc1ccc(NC(=O)CCl)c([N+](=O)[O-])c1 [4-I21, 2-chloro-N-(4-methoxy-2-nitrophenyl)acetamide]",107.311
21,"N#CC(=Cc1cccc(F)c1)C(=O)Nc1cc(Cl)ccc1Cl [9-P03, 2-cyano-N-(2,5-dichlorophenyl)-3-(3-fluorophenyl)prop-2-enamide]",92.2502
22,"CCN(C(=O)CCl)c1ccccc1 [6-E15, 2-chloro-N-ethyl-N-phenylacetamide]",87.8188
23,"O=C(CCl)NCc1ccc(N2CCOCC2)nc1 [6-E22, 2-chloro-N-{[6-(morpholin-4-yl)pyridin-3-yl]methyl}acetamide]",101.773
